{
  "source": "patent US11713338B2",
  "about": "“Cyclic peptides multimers targeting α-4-β-7 integrin” (priority 2016, dated 2023)",
  "molecular_target": "T1, recombinant integrin α4β7 (Homo sapiens, UniProt P13612+P26010, DEL724-798)",
  "T1 construct": "purchased R&D Systems 5397-A3-050",
  "T1 sequence (P13612 34-970 limits assumed)": "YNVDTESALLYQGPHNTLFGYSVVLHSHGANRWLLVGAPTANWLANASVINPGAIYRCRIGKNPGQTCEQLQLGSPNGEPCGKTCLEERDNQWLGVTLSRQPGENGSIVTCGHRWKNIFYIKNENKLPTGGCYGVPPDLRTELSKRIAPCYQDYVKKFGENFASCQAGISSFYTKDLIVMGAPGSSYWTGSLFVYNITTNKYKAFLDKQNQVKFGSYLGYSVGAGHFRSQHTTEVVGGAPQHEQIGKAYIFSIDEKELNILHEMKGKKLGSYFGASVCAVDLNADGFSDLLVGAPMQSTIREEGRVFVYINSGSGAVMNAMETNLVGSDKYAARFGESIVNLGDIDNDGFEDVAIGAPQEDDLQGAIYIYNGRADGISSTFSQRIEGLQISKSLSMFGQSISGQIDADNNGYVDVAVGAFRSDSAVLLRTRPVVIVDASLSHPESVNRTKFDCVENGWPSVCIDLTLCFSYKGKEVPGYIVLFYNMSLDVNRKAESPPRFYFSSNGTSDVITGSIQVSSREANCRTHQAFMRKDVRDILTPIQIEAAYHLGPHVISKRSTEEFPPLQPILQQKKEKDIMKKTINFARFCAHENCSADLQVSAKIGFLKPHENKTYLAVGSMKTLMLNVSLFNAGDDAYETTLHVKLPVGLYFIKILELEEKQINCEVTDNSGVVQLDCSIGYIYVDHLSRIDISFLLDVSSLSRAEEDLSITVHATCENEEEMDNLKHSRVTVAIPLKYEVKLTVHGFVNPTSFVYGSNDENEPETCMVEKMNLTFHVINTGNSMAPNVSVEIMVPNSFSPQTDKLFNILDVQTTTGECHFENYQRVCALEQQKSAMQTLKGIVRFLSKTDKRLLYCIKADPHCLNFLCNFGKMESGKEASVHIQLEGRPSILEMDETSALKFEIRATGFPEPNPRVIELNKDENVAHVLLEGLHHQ",
  "T1 sequence (P26010 20-723 limits assumed)": "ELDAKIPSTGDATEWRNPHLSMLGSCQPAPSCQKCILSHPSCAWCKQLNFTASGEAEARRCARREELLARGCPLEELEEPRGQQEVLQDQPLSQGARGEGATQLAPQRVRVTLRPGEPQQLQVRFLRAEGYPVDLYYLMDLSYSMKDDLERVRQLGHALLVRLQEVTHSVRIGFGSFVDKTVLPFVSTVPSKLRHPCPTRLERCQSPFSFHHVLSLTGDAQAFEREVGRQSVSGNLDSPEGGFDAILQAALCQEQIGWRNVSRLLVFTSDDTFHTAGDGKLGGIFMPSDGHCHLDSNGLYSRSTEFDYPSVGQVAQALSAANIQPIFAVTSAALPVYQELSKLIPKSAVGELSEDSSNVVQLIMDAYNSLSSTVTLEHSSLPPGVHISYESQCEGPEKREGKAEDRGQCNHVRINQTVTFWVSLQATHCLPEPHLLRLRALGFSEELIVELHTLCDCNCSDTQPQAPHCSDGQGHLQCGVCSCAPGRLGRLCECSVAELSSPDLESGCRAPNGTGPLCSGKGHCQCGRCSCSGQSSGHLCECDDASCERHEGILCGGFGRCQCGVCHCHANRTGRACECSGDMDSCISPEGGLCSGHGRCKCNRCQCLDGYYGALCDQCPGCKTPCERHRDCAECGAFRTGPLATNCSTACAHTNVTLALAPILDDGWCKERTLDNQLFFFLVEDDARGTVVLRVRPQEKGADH",
  "test": "Integrin α4β7—MAdCAM-1 ELISA competition assay",
  "format": "binding",
  "conditions": "read-out: ELISA α4β7 Assay IC50",
  "note": "At least one compound was matched to its structure with a doubt left.",
  "data": [
    {"smiles": "CC(C)C[C@@H]1NC(=O)C[C@H](CCCCN)N(C)C(=O)[C@H](CCCCNC(=O)c2cc(C(=O)O)cc(C(=O)NCCCC[C@@H]3NC(=O)[C@@H]4CCCN4[C@H](C(=O)NC(C)(C)C)[C@H](C)NC(=O)[C@H]([C@@H](C)O)NC(=O)[C@H](CC(=O)O)NC(=O)[C@H](CC(C)C)NC(=O)C[C@H](CCCCN)N(C)C3=O)c2)NC(=O)[C@@H]2CCCN2[C@H](C(=O)NC(C)(C)C)[C@H](C)NC(=O)[C@H]([C@@H](C)O)NC(=O)[C@H](CC(=O)O)NC1=O", "note": "[Compound 537]", "values": [
      {"measurement": "IC50", "value": 6.5, "unit": "nM"}
    ]}
  ]
}
